These results are taken from PubChem BioAssay AID1346428 (National Center for Advancing Translational Sciences (NCATS), 2018).

The campaign covered roughly 48,000 compounds. About 1,200 (2.5%) were called active. Inconclusive results (about 2%) are left out.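 Rule for the calls: active = activation of at least 60% and not above a set upper limit (about 1 call in 100 departs from these limits); inconclusive = activation of 40% to 60%, or above that upper limit; inactive = activation under 40%.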 The list shows a part of the results.

UniProt O75388, sequence (O75388 whole entry, looked up): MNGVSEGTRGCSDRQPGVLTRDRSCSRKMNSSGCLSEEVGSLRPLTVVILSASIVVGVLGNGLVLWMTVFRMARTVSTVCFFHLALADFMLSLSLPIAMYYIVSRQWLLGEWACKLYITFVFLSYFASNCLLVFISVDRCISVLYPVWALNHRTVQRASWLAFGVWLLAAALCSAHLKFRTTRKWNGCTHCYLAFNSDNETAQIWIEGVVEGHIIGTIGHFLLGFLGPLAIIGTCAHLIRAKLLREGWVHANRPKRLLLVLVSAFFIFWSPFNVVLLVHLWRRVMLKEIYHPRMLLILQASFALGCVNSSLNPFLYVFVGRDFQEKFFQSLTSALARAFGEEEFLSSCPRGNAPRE

In this assay the target is Probable G-protein coupled receptor 32 (Homo sapiens) (UniProt O75388). Nature of the assay: qHTS for Agonists of Human Resolvin D1 Receptor DRV1. The conditions noted are these: CHO-K1 GPR32 beta-arrestin PathHunter luminescence, 90 min; at 76.9 µM; stronger effect = higher value; zero percent set by DMSO-only wells. The method in brief:
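Using DMSO wells as EC0, agonist-induced signal was taken as chemiluminescence from beta-Gal reconstituted upon beta-arrestin recruitment to GPR32 in CHO-K1 cells after 90 min compound treatment.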
In the case of `O=C(NCc1ccccc1)C1CCCN(S(=O)(=O)c2cccc3nsnc23)C1` (stereo not drawn), the activation is inactive: -13.2%.

On to `CC(C)(C)OC(=O)N1CCC(c2c(C(=O)Nc3ccc4c(c3)OCCO4)cnn2-c2ccc(Cl)cc2)CC1`, for which the activation was inactive: -15.6%.

Turning to `CCOc1ccc(NC(=O)CN2C(=O)CC(C)Sc3ccccc32)cc1` (stereo not drawn), the activation is inactive: 6.74%.

For the compound `COc1ccc(CCNC(=O)C(CC(C)C)N2Cc3ccccc3C2=O)c(OC)c1OC` (stereo not drawn), the activation was inactive: -5.7%.

With `CCn1cc(CCC(=O)NCc2ccc(C)cc2)c2ccccc21`, the activation was inactive: -31.4%.

Regarding `Cc1ccc2c(c1)C(Cc1ccccc1F)C(=O)N2` (stereo not drawn), the activation was inactive: 39.9%.

With `COc1ccc(C)cc1NC(=O)C1CCN(S(=O)(=O)c2ccc3[nH]c(=O)oc3c2)CC1`, the activation is inactive: 4.65%.

Turning to `Cc1cccc(C(=O)Nc2cc(-c3nc4cccnc4s3)ccc2C)c1`, the activation is inactive: -5.01%.

As for `COc1cc2c(=O)n(Cc3ccccc3Cl)c(=O)n(CC(=O)Nc3ccc(C)c(C)c3)c2cc1OC`, the activation is inactive: 5.82%.

For `CC(C)Oc1ccccc1C1C=C(C(=O)O)Nc2ncnn21` (stereo not drawn), the activation was inactive: -0.528%.

In the case of `COc1ccc(CCn2c3c(c(=O)[nH]c2=O)C(NC(=O)c2ccccc2F)(C(F)(F)F)C(=O)N3)cc1OC` (stereo not drawn), the activation is inactive: 6.87%.

For `COc1ccccc1-c1nc(SCC(=O)NCc2ccc(C)cc2)c2c(=O)n(C)c(=O)n(C)c2n1`, the activation was inactive: 9.13%.

Take `Cc1ccc(-c2ccc(=O)n(CC(=O)Nc3ccc(C)cc3Cl)n2)cc1`: the activation is inactive: -20.9%.

Turning to `O=C(COc1ccccc1F)Nc1ccc2oc(-c3cccc(Cl)c3)nc2c1`, the activation is inactive: -5.35%.

On to `Cc1cccc(CN2C(=O)N(c3ccc(C(C)C)cc3)S(=O)(=O)c3ccccc32)c1`, for which the activation is inactive: 18.9%.

As to `COc1cccc(/C=C/c2nc(C#N)c(NCCc3ccccc3)o2)c1`, the activation is inactive: -12%.

Consider `COc1ccc(C2C=C(c3ccccc3)Nc3nc(NC(=O)c4cccc([N+](=O)[O-])c4)nn32)cc1` (stereo not drawn), for which the activation was inactive: -18.2%.

For `O=C1[C@@H]2[C@H]3CC[C@H](C3)[C@@H]2C(=O)N1CCCCN1CCN(c2ncccn2)CC1`, the activation is inactive: 5.38%.

For the compound `COc1ccc(C(=O)Nc2ccc3oc(-c4cccnc4)nc3c2)cc1`, the activation was inactive: 6.81%.

`Clc1cccc(N2CCN(c3nc4ccccc4n4nnnc34)CC2)c1`: the activation is inactive: -14%.

For the compound `Cc1ccc(OCC(=O)Nc2cccc(-c3nc4ccccc4s3)c2)cc1`, the activation was inactive: -15.8%.

With `CCOC(=O)c1ccc(NC(=O)C2CCCN(c3ncnc4onc(-c5ccc(F)cc5)c34)C2)cc1` (stereo not drawn), the activation is inactive: -13.6%.

`COc1cccc(CNC(=O)c2sc3nc(C)cc(C)c3c2-n2cccc2)c1OC`: the activation was inactive: 3.7%.

For the compound `Cc1c(C(=O)NCc2ccccc2)sc2nc3n(c(=O)c12)CCCCC3`, the activation is inactive: 19.6%.

For `CCOc1ccc(NC(=O)C2CC(=O)NC(=Nc3ccc(Cl)c(Cl)c3)S2)cc1` (stereo not drawn), the activation was inactive: -25.2%.

As to `COC(=O)c1sccc1S(=O)(=O)N1CCN(c2cc(Cl)ccc2C)CC1`, the activation is inactive: -24.5%.

For the compound `COC(=O)C(Cc1c[nH]c2ccccc12)NC(=O)COc1cccc(C)c1` (stereo not drawn), the activation is inactive: -10.2%.

As to `Cc1ccc(Cl)cc1N1CCN(C(=O)c2ccc(NC(=O)c3nsc4ccccc34)cc2)CC1`, the activation is inactive: -9.51%.

For `CCOC(=O)COc1ccc(CC)cc1C(=O)c1ccn2nc(-c3ccccc3)cc2n1`, the activation was inactive: -12.8%.

`Cc1ccc(NC(=O)c2oc3ccc(S(=O)(=O)N4CCC5(CC4)OCCO5)cc3c2C)cc1C`: the activation is inactive: -3.09%.

As to `COCCNC(=O)CCn1c(=O)c2cc(OC)c(OC)cc2n(CC(=O)Nc2ccc(Cl)cc2F)c1=O`, the activation is inactive: -7.45%.

With `Cc1ccc(-c2n[nH]c3c2C(c2ccc(C(C)(C)C)cc2)NC3=O)cc1` (stereo not drawn), the activation is inactive: -5.01%.

`Cc1nn(S(=O)(=O)c2ccc(C(C)(C)C)cc2)c(C)c1S(=O)(=O)N1CCCCCC1`: the activation is inactive: 0.633%.

`Cc1ccc(NC(=O)Cn2nnc3sc(-c4ccccc4)cc3c2=O)cc1Cl`: the activation is inactive: -2.07%.

Consider `Cc1ccc2c(c1)N(C(=O)NCc1ccccc1)CCO2`, for which the activation is inactive: -14.4%.

For `CCC(C)NC(=O)c1ccc2c(=O)n3c(nc2c1)CCCCC3` (stereo not drawn), the activation was inactive: 0.446%.

Consider `COc1ccc(C)cc1NS(=O)(=O)c1ccc2c(c1)n(C)c(=O)n2C`, for which the activation is inactive: 24.7%.

Turning to `CCC(CC)c1nn2c(=O)cc(COc3ccc(NC(=O)c4cccc(Cl)c4)cc3)nc2s1`, the activation was inactive: -1.73%.

As for `COc1ccc(C(=O)NCC2(N3CCN(C)CC3)CCCCC2)cc1`, the activation was inactive: -13.6%.

As for `CCn1c(=O)c(=O)n(CC)c2cc(N3CCCCC3)c(NC(=O)c3cccc(F)c3)cc21`, the activation was inactive: -1.79%.

Turning to `Cc1nnc2c(Nc3cccc(O)c3)nc3ccccc3n12`, the activation was inactive: 2.55%.

As for `CC(=O)Nc1ccc(C)cc1-c1nc2ccccc2n(CC(=O)Nc2cc(Cl)ccc2C)c1=O`, the activation is inactive: -9.79%.

With `CCCN1Cc2cccc(C(=O)Nc3cc(C)cc(C)c3)c2C1=O`, the activation is inactive: -10.8%.

As to `O=C1c2cccc3c2[C@H](CCC3)CN1[C@@H]1CN2CCC1CC2`, the activation is inactive: 16%.

For the compound `COc1ccc(Cl)cc1NC(=O)CCC(=O)N1CCOc2ccccc21`, the activation is inactive: -6.31%.

On to `COc1ccc(NC(=O)Cn2c(=O)n(Cc3ccc(C(=O)NCc4ccccc4Cl)cc3)c(=O)c3ccccc32)cc1OC`, for which the activation was inactive: 0.0093%.

As for `COc1ccc(NC(=O)CSc2nc(-c3ccco3)cc(C(F)(F)F)n2)cc1`, the activation is active: 94.6%.

For `COc1cccc(CNS(=O)(=O)c2cc3c(cc2C)n(C)c(=O)c(=O)n3C)c1`, the activation is inactive: 1.75%.

With `Cc1noc(-c2ccc(NCc3ccccc3)c([N+](=O)[O-])c2)n1`, the activation is inactive: -9.96%.

For the compound `COc1ccc(NC(=O)Cn2c(=O)n(CCc3ccccc3)c(=O)c3ccccc32)cc1`, the activation was inactive: 14.4%.

Turning to `COc1ccc2nc(NC(=O)c3cc(=O)c4ccccc4o3)sc2c1`, the activation was inactive: -17.1%.

For the compound `Cc1ccccc1OCC(=O)Nc1cc(-c2cccc(Br)c2)nn1-c1ccccc1`, the activation is inactive: -5.87%.

In the case of `O=C(NCc1nc2cccnc2n1Cc1ccc(F)cc1)c1ccccc1C(F)(F)F`, the activation was inactive: -18.9%.

Turning to `O=C(c1cccc(Cl)c1)N1CCN(CCc2ccccn2)CC1`, the activation was inactive: -0.922%.

Consider `CCCCNC(=O)c1c(C)oc2ncn(CC(C)C)c(=O)c12`, for which the activation is inactive: -10.1%.

On to `CCOc1ccc(NC(=O)Cn2nc(-c3ccncc3)ccc2=O)cc1`, for which the activation was inactive: -16.3%.

On to `COc1ccc(C(=O)N(Cc2ccco2)Cc2ccco2)cc1`, for which the activation was inactive: -13%.

Turning to `COc1ccccc1CNCCSc1nnnn1C`, the activation is inactive: 23.7%.

`Nc1c(-c2nc(-c3ccncc3)no2)nnn1CC(=O)Nc1ccccc1`: the activation was inactive: -7.27%.

For the compound `COC(=O)c1c(N)n(-c2cc(Cl)cc(Cl)c2)c2nc3ccccc3nc12`, the activation is inactive: -23.7%.

On to `CCC(=O)N1CCc2cc(Br)cc(S(=O)(=O)N3CCCC(C(=O)NCc4ccccc4)C3)c21` (stereo not drawn), for which the activation is inactive: -20.8%.

Regarding `Cc1ccccc1CN1C(=O)c2ccccc2Sc2ccc(C(=O)NCc3cccs3)cc21`, the activation is inactive: -16.9%.

Regarding `Cc1noc(/C=C/c2ccccc2F)c1S(=O)(=O)N1CCC(C(=O)N(C)Cc2ccco2)CC1`, the activation was inactive: -21.8%.

With `COc1ccccc1N1CCN(S(=O)(=O)c2c(C)sc3ncn(CC(=O)Nc4ccccc4F)c(=O)c23)CC1`, the activation was inactive: 1.81%.

For `COc1ccc(S(=O)(=O)NCC(c2ccco2)N2CCOCC2)cc1C` (stereo not drawn), the activation was inactive: -14.6%.

For `O=C(Cn1c(=O)nc(-c2ccccc2)c2cc(Cl)ccc21)NCCc1ccc(Cl)cc1`, the activation is inactive: -12.1%.

As to `CCOc1ccc(/C=C/c2nc3ccccc3n2S(=O)(=O)c2ccc(Br)cc2)cc1`, the activation was inactive: 24.3%.

Consider `COc1cccc(NC(=O)Cn2c(=O)n(-c3ccc(Cl)cc3)c(=O)c3sc4ccccc4c32)c1`, for which the activation is inactive: -11.9%.

Turning to `CCN1CCN(c2ncc3c(n2)CCN(Cc2ccc(Br)s2)C3)CC1`, the activation is inactive: -32.6%.

With `CCc1ccc(NCc2cccn2-c2nnc(N3CCCCCC3)s2)cc1`, the activation was inactive: -24.1%.

Take `CCOc1ccc(NC(=O)CSc2nnc(CNC(=O)c3c(F)cccc3Cl)o2)cc1`: the activation is inactive: -7.43%.

As for `COc1ccc(OC)c(-c2cc(C(=O)Nc3cnn(Cc4ccc(Cl)cc4Cl)c3)no2)c1`, the activation is active: 90.6%.

Regarding `CCc1ccc(-c2[nH]nc3nc(-c4ccc(OC)cc4)cc(C(=O)NCCc4ccc(OC)c(OC)c4)c23)cc1`, the activation was inactive: -8.09%.

`COc1ccc(C(=O)NCCc2sc(-c3ccc(Cl)cc3)nc2C)c(OC)c1`: the activation is inactive: 13%.

As for `Cc1ccc(NC(=O)Cn2c(=O)n(-c3ccccc3)c(=O)c3c4c(sc32)CCCC4)cc1`, the activation was inactive: -1.44%.

With `COc1ccc(C)cc1NC(=O)NCc1ccc2c(c1)CCN2C(=O)c1ccccc1`, the activation was inactive: -24.3%.

In the case of `C=Cc1ccc(CN2C(=O)N(c3ccc(CC)cc3)S(=O)(=O)c3ccccc32)cc1`, the activation is inactive: -7.19%.

On to `COc1ccc(C)cc1NC(=O)CSc1nc(=O)n(Cc2ccncc2)c2c1CCC2`, for which the activation is inactive: 13.1%.

In the case of `COc1ccc(C)cc1Nc1nc2cc(Cl)c(Cl)cc2nc1-n1nc(C)cc1C`, the activation was inactive: 15.7%.

As for `CCc1cccc(N2C(=O)N(CC(=O)NCc3cccc(OC)c3OC)c3ccccc3S2(=O)=O)c1`, the activation is inactive: -24.4%.

With `CCCN1C(=O)C(Cc2nc3ccccc3c(=O)n2-c2ccccc2)c2cc(C)ccc21` (stereo not drawn), the activation is inactive: -9.69%.

Take `COc1cc(NC(=O)CN2C(=O)COc3ccc(S(=O)(=O)N4CCCCC4)cc32)cc(OC)c1`: the activation was inactive: -23.6%.

For `Cc1ccc(C)c(CN2C(=O)c3ccccc3S(=O)(=O)c3ccc(C(=O)N4CCN(c5ccccn5)CC4)cc32)c1`, the activation was inactive: -60%.
